{"source": "paper PMC6919601", "about": "“Identification of Plasmodium dipeptidyl aminopeptidase allosteric inhibitors by high throughput screening” (PLoS ONE, 2019)", "note": "Out of some 110,000 compounds screened, about 230 (0.21%) showed an effect of 50% or more. The list shows a part of the results.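 Further: 30 min substrate incubation versus DMSO and 10 µM JCP410 controls.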"}
{"molecular_target": "DPAP1 (Plasmodium falciparum, UniProt Q8IIJ9)", "sequence (Q8IIJ9 whole entry, looked up)": "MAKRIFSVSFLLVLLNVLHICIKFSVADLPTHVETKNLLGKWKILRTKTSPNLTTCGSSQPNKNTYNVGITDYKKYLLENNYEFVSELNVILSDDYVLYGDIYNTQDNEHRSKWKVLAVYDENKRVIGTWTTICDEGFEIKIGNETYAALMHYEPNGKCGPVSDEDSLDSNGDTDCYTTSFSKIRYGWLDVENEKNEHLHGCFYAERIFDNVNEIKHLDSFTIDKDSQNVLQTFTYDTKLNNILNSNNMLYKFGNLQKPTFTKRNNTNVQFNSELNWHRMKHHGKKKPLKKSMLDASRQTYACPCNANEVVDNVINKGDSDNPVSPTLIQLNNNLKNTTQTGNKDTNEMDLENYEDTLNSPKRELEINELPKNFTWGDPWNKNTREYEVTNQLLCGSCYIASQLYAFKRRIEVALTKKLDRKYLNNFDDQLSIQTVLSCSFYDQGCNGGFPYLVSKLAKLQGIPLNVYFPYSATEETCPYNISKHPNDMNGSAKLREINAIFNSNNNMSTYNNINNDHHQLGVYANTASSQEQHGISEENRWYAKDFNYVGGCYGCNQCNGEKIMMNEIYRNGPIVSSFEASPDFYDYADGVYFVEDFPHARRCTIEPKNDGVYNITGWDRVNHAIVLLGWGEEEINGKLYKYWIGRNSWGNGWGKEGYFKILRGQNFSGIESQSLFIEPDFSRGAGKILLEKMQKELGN", "assay": "primary screen, percent inhibition; read by cleavage of a fluorogenic dipeptide substrate; higher = more effect of the substance", "parameters": "species or system P. falciparum D10 trophozoite lysates; single well", "units": {"% Inhibition @ 10 uM": "%"}}
{"compound": "CCN(CC)c1ccc2cc(-c3nc4ccccc4o3)c(=O)oc2c1", "% Inhibition @ 10 uM": -0.239}
{"compound": "Cc1ccc2c(c1)-c1c(cnn1CC(=O)N(C)CCC#N)CO2", "% Inhibition @ 10 uM": -6.95}
{"compound": "Cc1ccc(C(=O)N/C(=C\\c2cccs2)C(=O)N2CCCC2)cc1C", "% Inhibition @ 10 uM": -0.968}
{"compound": "FC(F)(F)c1nnc2ccc(N3CCN(C(c4ccccc4)c4ccccc4)CC3)nn12", "% Inhibition @ 10 uM": -4.04}
{"compound": "Cc1cc(NC(=O)COCc2cc(-c3ccc(F)cc3)on2)no1", "% Inhibition @ 10 uM": 0.44}
{"compound": "Cc1ccc2c(c1)-c1c(cnn1CC(=O)NCCOC13CC4CC(C)(CC(C)(C4)C1)C3)CO2", "% Inhibition @ 10 uM": -6.42}
{"compound": "Cc1ccccc1Cn1cnc2c(cnn2-c2ccccc2)c1=O", "% Inhibition @ 10 uM": -0.0309}
{"compound": "CCCCOc1ccc(C(=O)NC2=NC(=O)CC(c3ccccc3Cl)N2)cc1", "note": "(stereo not drawn)", "% Inhibition @ 10 uM": 0.6}
{"compound": "Cc1ccc(-c2cc(C(F)F)n3ncc(C(=O)N(C)Cc4cnn(C)c4)c3n2)cc1", "% Inhibition @ 10 uM": -1.88}
{"compound": "COc1cccc(OCC(=O)N(Cc2nc(-c3ccccc3)no2)C(C)C)c1", "% Inhibition @ 10 uM": -3.68}
{"compound": "CC1=C(C(=O)OCc2ccccc2)C(c2cccc(F)c2)C2=C(O)CC(C)(C)CC2=N1", "note": "(stereo not drawn)", "% Inhibition @ 10 uM": 1.13}
{"compound": "Cc1ccc(-c2c(C#N)c(N)nc3c2CCCCC3)o1", "% Inhibition @ 10 uM": -3.14}
{"compound": "CCS(=O)(=O)n1nc(-c2ccc(Cl)cc2)nc1SC", "% Inhibition @ 10 uM": 3.88}
{"compound": "COc1ccc(-c2c(C)nn3c(N4CCN(C)CC4)cc(C)nc23)cc1OC", "% Inhibition @ 10 uM": -3.7}
{"compound": "O=C(COc1ccccc1Cl)N1c2ccccc2Sc2ccccc21", "% Inhibition @ 10 uM": -2}
{"compound": "Cc1nc(-c2ccc(NC(=O)c3c(C)nc4sccn34)cc2)cs1", "% Inhibition @ 10 uM": 5.66}
{"compound": "Cc1cccc(NC(=O)c2cccc(C(=O)Nc3cccc(C)c3)n2)c1", "% Inhibition @ 10 uM": -2.85}
{"compound": "O=C(c1cc(-c2ccccc2)nc2ccccc12)N1CCC2(CC1)OCCO2", "% Inhibition @ 10 uM": -5.92}
{"compound": "Cc1ccc(/C=C2\\CCC/C(=C\\c3ccc([N+](=O)[O-])cc3)C2=O)cc1", "% Inhibition @ 10 uM": 2.4}
{"compound": "FC(F)(F)C(Oc1nc(NC2CCCCC2)nc(N2CCOCC2)n1)C(F)(F)F", "% Inhibition @ 10 uM": 3.34}
{"compound": "N#C/C(=C\\Nc1ccccc1Cl)C(=O)NC(=O)c1ccccc1", "% Inhibition @ 10 uM": -2.87}
{"compound": "Cc1ccc(-c2nnc3sc(NC(=O)c4ccc(F)cc4)nn23)cc1", "% Inhibition @ 10 uM": 6.19}
{"compound": "Oc1ncnc2c1cnn2Cc1ccc(Cl)cc1Cl", "% Inhibition @ 10 uM": -1.66}
{"compound": "CCOc1ccccc1C(=O)NCc1ccccc1OC", "% Inhibition @ 10 uM": 2.33}
{"compound": "Cc1ccccc1NC(=O)c1sc2nc(-c3cccs3)ccc2c1N", "% Inhibition @ 10 uM": 7.48}
{"compound": "CCOc1ccc(N2C(=O)CC(N3CCN(C4CCc5ccccc5C4)CC3)C2=O)cc1", "note": "(stereo not drawn)", "% Inhibition @ 10 uM": -8.36}
{"compound": "Cc1cccc(C(=N)NOC(=O)CCCc2ccccc2)c1", "% Inhibition @ 10 uM": 1.96}
{"compound": "c1ccc(CN2CCC(NCCC(c3ccccc3)c3ccccc3)CC2)cc1", "% Inhibition @ 10 uM": 1.57}
{"compound": "CC(=O)c1sc2sc3ccccc3c2c1C", "% Inhibition @ 10 uM": 2.69}
{"compound": "CCCC/C(=N\\c1ccc(OC)cc1)C1=C(O)CCCC1=O", "% Inhibition @ 10 uM": -1.86}
{"compound": "COc1ccc(S(=O)(=O)Nc2ccc(S(=O)(=O)N3CCCC3)cc2)cc1OC", "% Inhibition @ 10 uM": 1.88}
{"compound": "O=C(c1cc2ccc3cccnc3c2[nH]1)N1CCOCC1", "% Inhibition @ 10 uM": 0.36}
{"compound": "CCOc1nc(Nc2ccc(C(C)C)cc2)nc(OCC)n1", "% Inhibition @ 10 uM": -0.582}
{"compound": "Cn1c(=O)c2nc(-c3ccc4ccccc4n3)[nH]c2n(C)c1=O", "% Inhibition @ 10 uM": -3.33}
{"compound": "CN1C(=O)/C(=C/c2ccccc2)S/C1=N/c1ccc(Cl)c(C(=O)O)c1", "% Inhibition @ 10 uM": 3.04}
{"compound": "CCCn1c(CNC(C)=O)nc2ccccc21", "% Inhibition @ 10 uM": -1.73}
{"compound": "CC(C)CCNC(=O)CNC(=O)c1cccs1", "% Inhibition @ 10 uM": 0.387}
{"compound": "CC1=C(C(=O)N2CCOCC2)C(c2ccccc2F)C2=C(O)CCCC2=N1", "note": "(stereo not drawn)", "% Inhibition @ 10 uM": 4.99}
{"compound": "CC(=O)c1ccc(NC(=O)c2c(-c3ccccc3)noc2C)cc1", "% Inhibition @ 10 uM": 4.37}
{"compound": "O=S(=O)(c1ccccc1)N1N=C(c2ccccc2)CC1c1ccco1", "note": "(stereo not drawn)", "% Inhibition @ 10 uM": 9.7}
{"compound": "Cc1ccsc1C1CC(=O)Nc2[nH]nc(-c3ccc(Cl)cc3)c21", "note": "(stereo not drawn)", "% Inhibition @ 10 uM": 8.01}
{"compound": "Cc1cc(Cl)ccc1NC(=O)C1CCN(C(=O)c2ccc(Br)cc2)CC1", "% Inhibition @ 10 uM": 4.32}
{"compound": "C=CCO/C(O)=C1\\C(C)=NC(SCC(=O)NC2CCCCC2)=C(C#N)C1c1ccco1", "note": "(stereo not drawn)", "% Inhibition @ 10 uM": 9.01}
{"compound": "Cc1ccccc1OCC(=O)Nc1ccc(C(=O)c2ccccc2)cc1", "% Inhibition @ 10 uM": -10.4}
{"compound": "CCN1C(=O)C(=CNc2cc(Cl)ccc2Cl)C(=O)N(CC)C1=O", "% Inhibition @ 10 uM": -4.75}
{"compound": "CCC(C)C(=O)c1[nH]c2ccccc2c1C(=O)O", "note": "(stereo not drawn)", "% Inhibition @ 10 uM": 2.7}
{"compound": "O=c1oc2cc(O)ccc2cc1-c1csnn1", "% Inhibition @ 10 uM": 8.41}
{"compound": "COc1cccc(-c2cc(C(=O)Nc3cnn(C45CC6CC(CC(C6)C4)C5)c3)on2)c1", "% Inhibition @ 10 uM": 9.55}
{"compound": "Cc1ccccc1Sc1nc2ccccc2[nH]1", "% Inhibition @ 10 uM": 1.79}
{"compound": "OC(CN1CCCC1)Cn1c2ccc(Br)cc2c2cc(Br)ccc21", "note": "(stereo not drawn)", "% Inhibition @ 10 uM": 0.177}
{"compound": "Cc1ccccc1C1c2ccccc2SC12CCN(C)CC2", "note": "(stereo not drawn)", "% Inhibition @ 10 uM": -3.9}
